Laboratory results from article PMC4336329 (PLoS ONE, 2015).
About 14,000 (4.5%) of roughly 310,000 compounds showed an effect of 50% or more. Effects have a minus sign here. This is one part of the list.

target: human ether-à-go-go-related gene (hERG) potassium channel (human, UniProt Q12809); assay: primary screen, population patch clamp on CHO cells stably expressing hERG
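Note: peak tail current of the secondary pulse compared with the same well before compound.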

human ether-à-go-go-related gene (hERG) potassium channel, sequence (Q12809 whole entry, looked up): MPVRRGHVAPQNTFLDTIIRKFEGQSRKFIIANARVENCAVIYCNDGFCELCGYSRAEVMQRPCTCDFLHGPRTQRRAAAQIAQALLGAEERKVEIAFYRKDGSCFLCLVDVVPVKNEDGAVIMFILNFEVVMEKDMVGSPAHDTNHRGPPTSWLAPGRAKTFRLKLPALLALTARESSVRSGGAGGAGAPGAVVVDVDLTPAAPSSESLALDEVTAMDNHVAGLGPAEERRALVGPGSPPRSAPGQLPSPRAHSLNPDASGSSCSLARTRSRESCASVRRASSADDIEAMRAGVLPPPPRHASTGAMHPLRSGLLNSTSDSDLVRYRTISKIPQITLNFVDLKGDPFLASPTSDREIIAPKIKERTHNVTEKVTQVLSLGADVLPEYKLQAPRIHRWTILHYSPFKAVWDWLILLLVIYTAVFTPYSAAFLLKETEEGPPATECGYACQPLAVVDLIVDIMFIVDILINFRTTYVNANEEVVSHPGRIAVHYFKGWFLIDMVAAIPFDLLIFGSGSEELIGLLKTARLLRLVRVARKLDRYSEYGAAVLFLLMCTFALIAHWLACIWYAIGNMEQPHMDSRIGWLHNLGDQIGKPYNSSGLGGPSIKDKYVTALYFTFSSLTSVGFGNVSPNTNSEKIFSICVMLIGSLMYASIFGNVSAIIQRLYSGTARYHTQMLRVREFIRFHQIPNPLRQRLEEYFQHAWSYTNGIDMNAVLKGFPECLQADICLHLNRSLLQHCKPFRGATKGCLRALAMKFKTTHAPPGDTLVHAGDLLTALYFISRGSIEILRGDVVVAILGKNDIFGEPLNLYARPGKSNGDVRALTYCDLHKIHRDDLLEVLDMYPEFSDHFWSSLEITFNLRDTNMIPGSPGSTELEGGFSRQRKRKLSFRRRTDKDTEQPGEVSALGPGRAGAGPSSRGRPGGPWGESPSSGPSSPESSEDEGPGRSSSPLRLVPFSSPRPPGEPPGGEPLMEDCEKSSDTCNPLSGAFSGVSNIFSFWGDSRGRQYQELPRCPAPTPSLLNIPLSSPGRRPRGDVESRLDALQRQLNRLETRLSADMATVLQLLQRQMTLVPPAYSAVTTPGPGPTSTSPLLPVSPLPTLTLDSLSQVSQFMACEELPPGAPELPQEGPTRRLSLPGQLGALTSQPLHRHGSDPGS

SMILES | hERG current change (%, negative = inhibition) at 10uM [%]
O=C(O)CNC(=O)CCCn1nnc2ccccc2c1=O | 14.3
COc1ccc(/C=N/NC(=O)c2ccc(-c3ccccc3)cc2)cc1O | 12.9
CCCOc1ccc(C2C(C#N)=C(N)Oc3nc[nH]c(=O)c32)cc1OC (centres unmarked) | 8.85
COC(=O)c1ccccc1NC(=O)COC(=O)CSCC(=O)N1CCOCC1 | 0.439
COc1ccc(OC)c(C(=O)/C=C/c2ccccc2C(F)(F)F)c1 | 15.2
COc1ccc(C(=O)Nc2ccc(S(=O)(=O)N3CCCC3)cc2)cc1[N+](=O)[O-] | 15.7
CC(C)N(Cc1ccccc1)C(=O)COC(=O)c1ccccc1SCC(=O)N1CCCC1 | -24.9
CCCCNC(=O)N(O)C1N(/N=C/c2ccc(N(C)C)cc2)C(=S)SC1(C)C (centres unmarked) | 9.67
CN(Cc1cccc(F)c1)C(=O)c1cccc(S(=O)(=O)N2CCN(Cc3ccccc3)CC2)c1 | 8.05
Nc1ccc2oc(-c3ccccn3)nc2c1 | 15.4
CCOC(=O)c1ccc(NC(=O)N2CCN(CCc3ccccc3)CC2)cc1 | -45.5
CCO/C([O-])=N/c1c[n+](N2CCOCC2)no1 | 17.4
O/N=C/c1ccc(-c2ccccc2OC(F)(F)F)o1 | 5.95
CCOc1cc(/C=C2\C(=O)N(c3cccc(C(F)(F)F)c3)C(=O)c3ccccc32)ccc1O | 6.39
CC(C)CN(C(=O)c1cc(=O)[nH]c2ccccc12)c1c(N)n(Cc2ccccc2)c(=O)[nH]c1=O | -4.41
CCc1ccc(/C=C2/C(=O)N(C)C(=S)N2CC(=O)OC)s1 | 11.9
Cc1ccc(S(=O)(=O)NCc2ccc3c(c2)cc(C)n3C)cc1 | 10.6
CCOC(=O)CCc1nn(C)c(=O)c2ccccc12 | -6.68
O=C(NNC(=O)c1ccc(-c2ccccc2)cc1)c1ccccc1 | 2.5
CCCCn1c(NCc2cccs2)nc2ccccc21 | -55.9
COc1ccc(CNC(=S)Nc2ccc(OC)cc2)cc1 | 3.09
CC(NC(=O)CN1CCCC1)C12CC3CC(CC(C3)C1)C2.Cl (centres unmarked) | -15.2
Cn1nc(C(F)(F)F)cc1-c1ccc(/C=C(\C#N)C(=O)c2cccc(C(F)(F)F)c2)s1 | 16.8

SMILES | hERG current change (%, negative = inhibition) at 10uM [%]
CN(C)c1nc(Oc2ccc(=O)n(C)n2)nc(N2CCOCC2)n1 | -8.41
CC12CCC(c3c(C(=O)O)nn(-c4ccc(F)cc4)c31)C2(C)C (centres unmarked) | 7.95
O=C(CN1CCOCC1)Nc1cccc(C(F)(F)F)c1 | -3
CSC1=C(C#N)C(c2ccncc2)C(C(=O)Nc2ccccc2)=C(C)N1 (centres unmarked) | -16.4
COc1cc(COc2ccc3c(C)c(CCC(=O)O)c(=O)oc3c2)cc(OC)c1OC | 17.5
COc1ccc2ccccc2c1/C=N\NC(=O)c1ccc(C)s1 | 14.8
O=C1CCC(=O)N1OCCOc1ccc2c(c1)CCC2 | -13.3
CCOC(=O)C1CCN(CC(O)COc2ccc(C(C)=O)cc2)CC1.Cl (centres unmarked) | -47.7
CC(C)(C)n1cnc2cc(NCc3ccccc3O)ccc21 | -10.1
CCN1C(=O)[C@H]2[C@@H](c3ccc(-c4ccc(C(C)=O)cc4)cc3)N[C@@](Cc3ccccc3)(C(=O)OC)[C@H]2C1=O.O=C(O)C(F)(F)F | 3.52
COC(=O)c1cc2ccsc2n1CC(=O)N1CCCc2ccccc21 | -23.9
COc1ccc(OC)c(C2=NOC(C(=O)Nc3ccc4c(c3)OCCO4)C2)c1 (centres unmarked) | 14.8
O=C(NC(=S)Nn1cnnc1)c1cccc(Br)c1 | 2.66
O=C(Oc1ccc[nH]c1=O)c1cccc(Cl)c1 | 10.3
Cc1nnc(NC(=O)c2ccc(S(=O)(=O)N3CC(C)OC(C)C3)cc2)o1 (centres unmarked) | 12.6
O=C(N1CCOCC1)C1(S(=O)(=O)c2ccccc2)CC=CC1 | 9.58
Cc1ccc(S(=O)(=O)N2CCN(C(=O)Cn3nc(C)c([N+](=O)[O-])c3C)CC2)cc1 | -13.7
C=CCNC(=O)N1CCCC(N2CCN(c3ccccc3OC)CC2)C1 (centres unmarked) | -1.16
Cc1cc(C)c(Nc2cc(S(=O)(=O)[O-])c(N)c3c2C(=O)c2ccccc2C3=O)c(C)c1.[Na+] | 12
Cc1ccc(S(=O)(=O)N2CCC(C(=O)OCC(=O)N(CC(C)C)C3CCS(=O)(=O)C3)CC2)cc1C (centres unmarked) | 4.81
COc1ccccc1CC(=O)NCc1nn(-c2ccccc2)nc1C | 9.76
COc1cc(NC(=O)c2cc([N+](=O)[O-])ccc2NC(=O)CNC2CCCCC2)cc(OC)c1 | 5.17
Cc1cc2ccccc2nc1Br | 7.56

SMILES | hERG current change (%, negative = inhibition) at 10uM [%]
OCCC1CN(Cc2cccs2)CCN1Cc1ccccc1 (centres unmarked) | -20.9
O=C(NCc1cccs1)C1CCN(c2nccs2)CC1 | -16.5
CCOC(=O)c1cnc(-c2ccccc2)nc1Oc1ccccc1 | 7.83
CC(C)Cc1nnc(NC(=O)C2CC(=O)N(c3ccc4c(c3)OCCO4)C2)s1 (centres unmarked) | -22.5
CN(Cc1ccccc1)c1oc(COc2ccccc2F)nc1C#N | -32.7
O=C(c1noc2c1CCCC2)N1CCc2c([nH]c3ccccc23)C1c1ccccn1 (centres unmarked) | -7.65
O=C(CN1C(=O)C2C3C=CC(C3)C2C1=O)OCC(=O)c1ccc(Cl)c([N+](=O)[O-])c1 (centres unmarked) | 15.7
CCC(=O)Nc1ccc(/C=C(\C(C)=O)C(=O)c2ccccc2)cc1 | 12
CNS(=O)(=O)c1cccc(C(=O)OCC(=O)Nc2ccc(OC)cc2[N+](=O)[O-])c1 | 14.3
C/C(CC(=O)NC1CCCC1)=N\NC(=O)Cc1cccs1 | -3.71
CC(Cc1cccs1)NC(=O)Nc1cccc(Cl)c1 (centres unmarked) | 0.919
Cc1ccc2cccc(OCc3cccc([N+](=O)[O-])c3)c2n1 | -4.71
CCCn1c(CN2CCCCC2C)nc2c1c(=O)n(C)c(=O)n2C (centres unmarked) | 3.04
O=c1[nH]c2ccc(NS(=O)(=O)c3ccc([N+](=O)[O-])cc3)cc2[nH]1 | 32
COc1cccc(N2CC(NS(=O)(=O)c3cccs3)CC2=O)c1 (centres unmarked) | 4.83
COC(=O)COc1ccc(Oc2nc(SC)nc(N(C)C)n2)nn1 | -26.8
CCS(=O)(=O)Nc1ccc(-c2nnc(SCC(=O)OC)o2)cc1 | -6.99
COc1ccc(-c2noc(CSc3nnc(-c4ccncc4)n3-c3ccc(F)cc3)n2)cc1OC | 0.121
CC(NC(=O)C1CC12CCC2)c1ccccc1 (centres unmarked) | 11.8
Cc1ccccc1-c1nnc(Cc2ccccc2)o1 | -17.9
O=C(NCCNc1ccc([N+](=O)[O-])cc1)c1ccccc1Br | -43.3
CC(O)[C@H]1CNCCN1CC1(c2ccccc2)CC1 (some centres unmarked) | 5.46
O=S(=O)(NCC(c1cccnc1)N1CCOCC1)c1ccc(Cl)cc1 (centres unmarked) | 4.89

SMILES | hERG current change (%, negative = inhibition) at 10uM [%]
COCCN(C(=O)C1CC1)c1nnc(-c2cccc(C)c2)s1 | -6.82
C=CCn1c(SCC(=O)NC(=O)c2cccc([N+](=O)[O-])c2)nnc1-c1ccccc1 | -10.9
CN(C)CCn1c(C(=O)Nc2ccccc2)cc2ccccc21.Cl | -58.9
CCC(C(=O)Nc1ccc(OC)c(Cl)c1)c1ccccc1 (centres unmarked) | -2.24
O=C(CN1C(=O)NC(Cc2ccccc2)C1=O)Nc1ccc(OC(F)(F)F)cc1 (centres unmarked) | -13.9
Cc1cc(C)nc(OC(=O)c2c(Cl)cc(Cl)cc2Cl)n1 | 9.64
C=CCN(CC=C)C(=O)c1ccccc1NC(=O)c1ccccc1C | 13.3
CCc1ccc(CNC(=O)CC2C(=O)NCCN2Cc2ccccc2F)nc1 (centres unmarked) | 1.14
O=S1(=O)CCO[C@H]2Cc3ccccc3[C@H]2N1Cc1ccccc1Br | -5.31
Cc1ccc(CN2CCN(C3CSCCSC3)CC2CCO)cc1 (centres unmarked) | -41.9
Cc1ccc2c(c1)C(=O)CC1(CCC(C(C)(C)C)CC1)O2 (centres unmarked) | 22.7
Cc1cc(=O)c2c([nH]1)c(C)cc1[nH]c(C)c(C)c12 | 3.42
Cc1cc(C=O)c(C)n1C1CC1 | 8.18
COC(=O)[C@H](Cc1ccccc1)NC(=O)NCc1ccccc1OC | 12.2
NC(N)=NC(=O)c1nc(Cl)c(N)nc1N | -3.88
O=C(Nc1cccc(Br)c1)c1ccc2c(c1)SC1=NS(=O)(=O)CCN12 | -7.96
Cc1ccc(-c2nn(-c3ccccc3)c3[nH]c(=O)c(CNCc4ccccc4)cc23)cc1 | 21.1
COc1cc2c(cc1OC)C(c1ccco1)CC(=O)N2 (centres unmarked) | 3.25
COC(=O)c1oc2c(c1C)C(=O)CC(C)(C)C2 | 15.8
COC(=O)C1=C(C)N(CCCC(=O)O)C(=O)NC1c1ccccc1OS(=O)(=O)c1ccccc1[N+](=O)[O-] (centres unmarked) | 15.3
